This passage reports Potency results from PubChem BioAssay AID360 (National Center for Advancing Translational Sciences (NCATS), 2006).

The whole screen tested about 48,000 compounds, of which about 550 (1.1%) were called active. Not shown: some 4% with an inconclusive outcome. No stated cut-off is given here; in the data, active means potency below about 15 µM; inconclusive means mostly about 16 µM to 33 µM; inactive means weaker than that. The list shows a part of the results. Where only a bound is given, the exact number is not on record here.
Potency means the concentration at half of the fitted maximal effect.

This assay deals with Lysosomal acid glucosylceramidase (Homo sapiens) (UniProt P04062). Nature of the assay: Glucocerebrosidase.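 Further: the screen sought inhibitors.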 The following applies: purified enzyme, resorufin glucoside fluorescence (screen aimed at inhibitors), 20 min. The method, boiled down: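 Compounds titrated against 0.2 nM normal enzyme, 30 uM resorufin beta-D-glucopyranoside substrate, citrate/phosphate buffer with taurocholate and tween-20, pH 5.9. Reaction ran 20 min at room temperature; fluorescence (Ex 548/Em 600) gave AC50.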
Chain of UniProt P04062 (P04062 whole entry, looked up): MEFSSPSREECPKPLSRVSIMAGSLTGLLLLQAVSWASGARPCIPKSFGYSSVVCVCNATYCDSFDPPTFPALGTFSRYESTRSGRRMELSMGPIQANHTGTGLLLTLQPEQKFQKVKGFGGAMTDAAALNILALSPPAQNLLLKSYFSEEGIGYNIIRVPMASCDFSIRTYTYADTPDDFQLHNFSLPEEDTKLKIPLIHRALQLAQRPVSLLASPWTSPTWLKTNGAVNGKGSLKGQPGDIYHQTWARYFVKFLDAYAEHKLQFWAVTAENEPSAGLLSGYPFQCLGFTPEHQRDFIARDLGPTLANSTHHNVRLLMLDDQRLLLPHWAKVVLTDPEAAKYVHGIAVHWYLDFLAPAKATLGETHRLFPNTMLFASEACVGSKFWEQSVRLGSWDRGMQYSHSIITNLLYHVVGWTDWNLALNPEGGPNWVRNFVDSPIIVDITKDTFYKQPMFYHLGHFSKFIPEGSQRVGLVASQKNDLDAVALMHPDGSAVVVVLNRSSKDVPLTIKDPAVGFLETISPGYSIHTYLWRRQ
`COC(=O)c1nonc1NCn1nnc2ccccc21`: the Potency was inactive: > 76.9 µM.

Regarding `Cc1cc(C)n(C(=O)c2ccc(C)c(S(=O)(=O)N3CCCC3)c2)n1`, the Potency is inactive: > 76.9 µM.

`COC(=O)c1sccc1NC(=O)CSc1nnnn1-c1ccccc1F`: the Potency is inactive: > 76.9 µM.

For `CCOc1ccc(N2C(=O)C3CCCN3C2=O)cc1` (configuration not stated), the Potency is inactive: > 76.9 µM.

Turning to `COc1cc(C(O)P(=O)(OC(C)C)c2ccc(N(C)C)cc2)cc(OC)c1OC` (configuration not stated), the Potency was inactive: > 76.9 µM.

For `Cc1ccc(SCc2cc(=O)n3[nH]c(C)nc3n2)cc1`, the Potency is inactive: > 76.9 µM.

In the case of `CCOC(=O)C1CCN(c2c(NCc3ccc(C(=O)NCCC(C)C)cc3)c(=O)c2=O)CC1`, the Potency was inactive: > 76.9 µM.

For `Cc1ccc(Cn2c(CN3CCOCC3)nc3c2c(=O)[nH]c(=O)n3C)cc1`, the Potency is inactive: > 76.9 µM.

With `CCOc1ccc(OCC)c(NC(=O)C2CCN(S(=O)(=O)c3c(C)noc3C)CC2)c1`, the Potency was inactive: > 76.9 µM.

`O=C(CCNC(=O)Cn1cnc2ccccc2c1=O)NCCC1=CCCCC1`: the Potency was inactive: > 76.9 µM.

Take `CCOC(=O)N1CCN(S(=O)(=O)c2cccs2)CC1`: the Potency is inactive: > 76.9 µM.

Regarding `CCOC(=O)CSc1nnc(Cn2nnc(-c3ccccc3)n2)n1CC`, the Potency was inactive: > 76.9 µM.

For the compound `Cc1ccc(NC(=O)CN(c2ccccc2F)S(C)(=O)=O)cc1`, the Potency is inactive: > 76.9 µM.

Regarding `COC(=O)c1ccccc1Nc1ccccc1`, the Potency is inactive: > 76.9 µM.

With `COc1ccc(Cc2nnc3c4cnn(C)c4ncn23)cc1`, the Potency is inactive: > 76.9 µM.

Consider `CN1C(=S)SC(/[N+]([O-])=C\c2ccco2)C1(C)C` (configuration not stated), for which the Potency was inactive: > 76.9 µM.

In the case of `COc1cccc(NS(=O)(=O)c2ccc(OC)c(OC)c2)c1`, the Potency is inactive: > 76.9 µM.

Regarding `COCCCNc1nc2ccccc2nc1NS(=O)(=O)c1cccs1`, the Potency is inactive: > 76.9 µM.

Consider `Cn1c(=O)c2c(nc(SCc3cccnc3)n2Cc2ccccc2)n(C)c1=O`, for which the Potency is inactive: > 76.9 µM.

Consider `CCCCN(CCCNC(=O)C1CCN(S(=O)(=O)CC)CC1)c1ccccc1`, for which the Potency result is “inactive”.

`CCn1nnc(-c2ccccc2NC(=O)c2cccc(-n3cnnn3)c2)n1`: the Potency is inactive: > 76.9 µM.

On to `O=C(c1ccco1)N1CCN(C(=O)c2snc3ccc(Cl)cc23)CC1`, for which the Potency was inactive: > 76.9 µM.

As for `CC1(C)C2CCC1(CS(=O)(=O)N1CCCc3ccccc31)C(=O)C2` (configuration not stated), the Potency is inactive: > 76.9 µM.

For the compound `Cc1cccc(-n2c(SCC(=O)N3CCCC3)nnc2-c2ccccn2)c1C`, the Potency is inactive: > 76.9 µM.

Regarding `C=CCN1C(=Nc2ccccc2)SC/C1=C\C(=O)OC`, the Potency is inactive: > 76.9 µM.

Take `COc1ccc2[nH]c(=O)c(CN(CCO)S(=O)(=O)c3ccc4c(c3)OCCO4)cc2c1`: the Potency is inactive: > 76.9 µM.

Turning to `O=C(OCc1ccccc1)c1ccc(Br)o1`, the Potency is inactive: > 76.9 µM.

Turning to `CCC(=O)Nc1cccc(-c2nc3ccccc3o2)c1`, the Potency is inactive: > 76.9 µM.

`Cn1c(=O)c(NC(=O)c2ccccc2)c2n(c1=S)CCCCC2`: the Potency is inactive: > 76.9 µM.

Take `CN(C)c1ccc(-c2nnn(Cc3ccccc3Br)n2)cc1`: the Potency was inactive: > 76.9 µM.

In the case of `CC(=O)Nc1cccc(OCC(=O)Nc2ccc(F)cc2)c1`, the Potency is inactive: > 76.9 µM.

Turning to `O=C(CSc1nnc(-c2ccccc2)n1Cc1ccco1)Nc1ccc2c(c1)OCCO2`, the Potency is inactive: > 76.9 µM.

Consider `O=C(c1cccs1)N(Cc1ccccn1)Cc1ccco1`, for which the Potency is inactive: > 76.9 µM.

Turning to `O=C(Cc1ccccc1)Nc1ccc2oc(-c3ccncc3)nc2c1`, the Potency was inactive: > 76.9 µM.

Take `Cc1cnc(NC(=O)COc2ccccc2Cl)s1`: the Potency was inactive: > 76.9 µM.

Turning to `CCOC(=O)c1c(NC(=O)CSc2nnnn2-c2ccc3c(c2)OCCO3)sc(C)c1C`, the Potency was inactive: > 76.9 µM.

`CCOC(=O)CNC(=O)CSc1nc(C)cc(C)c1C#N`: the Potency was inactive: > 76.9 µM.

For the compound `COC(=O)CN(n1cnnc1)S(=O)(=O)c1ccc(C)cc1`, the Potency was inactive: > 76.9 µM.

Consider `Cc1cc(C(=O)NCc2ccccc2F)cs1`, for which the Potency was inactive: > 76.9 µM.

Consider `CCn1c(SCCC(=O)Nc2ccccc2)nnc1-c1ccc(OC)cc1`, for which the Potency was inactive: > 76.9 µM.

`CCOc1cccc(Oc2ccc(C(F)(F)F)cn2)c1`: the Potency was inactive: > 76.9 µM.

Take `Cc1cccc(-n2ncc3c(NCc4cccs4)ncnc32)c1`: the Potency is active: 14.5 µM.

For `Cc1ccc(-c2cc(C(=O)NCc3cccs3)no2)cc1`, the Potency is inactive: > 76.9 µM.

As to `COC(=O)C1(C(=O)OC)Sc2ccccc2C1=O`, the Potency was inactive: > 76.9 µM.

For the compound `O=C(CSc1nnc2scc(-c3ccccc3)n12)NCC1CCCO1` (configuration not stated), the Potency was inactive: > 76.9 µM.

Take `Nc1ncc2c(n1)CC(c1ccco1)CC2=O` (configuration not stated): the Potency is inactive: > 76.9 µM.

Turning to `OC1(c2cccnc2)CCN(Cc2nnnn2C2CCCCC2)CC1`, the Potency is inactive: > 76.9 µM.

Regarding `CCOC(=O)c1ccc(NC(=O)Nc2c(C)nn(C)c2C)cc1`, the Potency was inactive: > 76.9 µM.

Take `O=C(CCC1(C(=O)O)CCC(=O)NC1)NCc1ccccc1` (configuration not stated): the Potency is inactive: > 76.9 µM.

In the case of `CC(C)N1C(=O)CCC1C(=O)N1CCCc2ccccc21` (configuration not stated), the Potency is inactive: > 76.9 µM.

For the compound `Cc1ccc(S(=O)(=O)N(C)Cc2nc(-c3ccccn3)no2)cc1`, the Potency is inactive: > 76.9 µM.

Take `Cc1cc(C)c(C(=O)CC2(O)C(=O)Nc3ccccc32)cc1C` (configuration not stated): the Potency was inactive: > 76.9 µM.

Take `CCN(CC)C(=O)CSc1nc2ccccc2c(=O)n1-c1cccc(OC)c1`: the Potency was inactive: > 76.9 µM.

Take `CC(C)C(C(=O)C=[N+]=[N-])N1C(=O)c2ccccc2C1=O` (configuration not stated): the Potency was inactive: > 76.9 µM.

As to `COc1ccccc1CNC(=O)c1oc2ccc(S(=O)(=O)N3CCCC3)cc2c1C`, the Potency is inactive: > 76.9 µM.

In the case of `COCCCNC(=O)Nc1ccc(Br)cc1Cl`, the Potency was inactive: > 76.9 µM.

Consider `CC(C)(C)c1nc(CN2CCOCC2)ccc1O`, for which the Potency was inactive: > 76.9 µM.

In the case of `O=C(c1ccccc1)c1ccc(CN2C(=O)c3ccccc3C2=O)o1`, the Potency is inactive: > 76.9 µM.

In the case of `Cc1cccc(C)c1NC(=O)C(c1ccccc1)N1CCC2(CC1)OCCO2` (configuration not stated), the Potency is inactive: > 76.9 µM.

`Cc1nn(C)c(C)c1S(=O)(=O)NCc1cccs1`: the Potency was inactive: > 76.9 µM.

Consider `O=C(CSCc1cnn(-c2ccccc2)c1-n1cccc1)NCCN1CCOCC1`, for which the Potency result was “inactive”.

Consider `Cc1ccc(NC(=O)CS(=O)CC(=O)NC(C)CCc2ccco2)cc1Cl` (configuration not stated), for which the Potency is inactive: > 76.9 µM.

With `N#Cc1c(N)c(C(=O)c2ccccc2)n2c1CCC2`, the Potency is inactive: > 76.9 µM.

For `CCOC(=O)N1CCN(C(=O)CSCc2nc(-c3ccccc3C)oc2C)CC1`, the Potency was inactive: > 76.9 µM.

Turning to `Cc1ccc(C2C(C#N)=C(N)Oc3nc(-c4ccccc4)[nH]c32)o1` (configuration not stated), the Potency is inactive: > 76.9 µM.

Consider `Cc1ccc(NC(=O)COC(=O)c2ccc3c(c2)NC(=O)C2CCCN32)cc1` (configuration not stated), for which the Potency is inactive: > 76.9 µM.

As for `CCOC(=O)C1=C(C)SC2=NS(=O)(=O)CCN21`, the Potency is inactive: > 76.9 µM.

On to `COc1cccc(NC(=O)CCP(C)(=O)O)c1`, for which the Potency was inactive: > 76.9 µM.

On to `O=C(O)C1C2C=CC(C2)C1C(=O)N1CCOCC1` (configuration not stated), for which the Potency was inactive: > 76.9 µM.

In the case of `Cc1nc2cc(CO)ccc2s1`, the Potency was inactive: > 76.9 µM.

For `CC1=C/C(=C/N(C)c2ccccc2)C(=O)S1`, the Potency is inactive: > 76.9 µM.

On to `Cc1ccccc1CN(c1ccc(C(N)=O)cc1)S(C)(=O)=O`, for which the Potency was inactive: > 76.9 µM.

Regarding `O=C(c1ccccc1)c1ccc2nc[nH]c2c1`, the Potency is inactive: > 76.9 µM.

In the case of `COc1ccc(/C(O)=C2/C(=O)C(=O)N(CCN(C)C)C2c2ccc(F)cc2)cc1Cl` (configuration not stated), the Potency was inactive: > 76.9 µM.

In the case of `CCCC12CN(C(=O)c3ccc(OC)cc3)CC(C)(CN(C(=O)c3ccc(OC)cc3)C1)C2=O`, the Potency is inactive: > 76.9 µM.

`Cc1c(C(=O)Nc2cccc(Cl)c2)oc2ccc(S(=O)(=O)N3CCC4(CC3)OCCO4)cc12`: the Potency was inactive: > 76.9 µM.

As for `COc1ccccc1N1CCN(C(=O)Cn2nnc(-c3ccncc3)n2)CC1`, the Potency is inactive: > 76.9 µM.

Turning to `O=S(=O)(c1ccc(OCC(O)CN2CCC(Cc3ccccc3)CC2)cc1)N1CCOCC1` (configuration not stated), the Potency was inactive: > 76.9 µM.

`CCCOC(=O)Cc1c(O)c2ccccc2[nH]c1=O`: the Potency is inactive: > 76.9 µM.

In the case of `CCn1c(SCC(=O)Nc2ccccc2-c2ccccc2)nnc1-c1ccoc1C`, the Potency is inactive: > 76.9 µM.

As for `Cc1ccc(-c2cc(=O)[nH][nH]2)c(C)c1`, the Potency was inactive: > 76.9 µM.

For the compound `CC(C)CC(C(=O)Nc1oc(-c2ccco2)c(-c2ccco2)c1C#N)N1C(=O)c2ccccc2C1=O` (configuration not stated), the Potency is inactive: > 76.9 µM.

Consider `CCn1cc(C(=O)N2CCCC2)c(=O)c2cc(S(=O)(=O)N3CCOCC3)ccc21`, for which the Potency was inactive: > 76.9 µM.

`Cn1c(=O)cc(OCC(=O)Nc2ccccn2)c2ccccc21`: the Potency is inactive: > 76.9 µM.

Take `C=CCNS(=O)(=O)c1ccc(OCC(=O)OC)cc1`: the Potency is inactive: > 76.9 µM.

For `COc1cc(C2c3c(oc4c(C)cc(C)cc4c3=O)C(=O)N2Cc2cccnc2)cc(OC)c1OC` (configuration not stated), the Potency was inactive: > 76.9 µM.

In the case of `COc1ccc(S(=O)(=O)N2CCN(CC(=O)Nc3cccc(F)c3)CC2)cc1`, the Potency was inactive: > 76.9 µM.

For `Cc1cc(C)nc(SCc2nnc(SCC(=O)NCc3ccco3)n2-c2ccccc2)n1`, the Potency was inactive: > 76.9 µM.

Take `CCCCOc1ccc(-c2nnn(CC(=O)NCc3ccco3)n2)cc1`: the Potency is inactive: > 76.9 µM.

As for `CC(NC(=O)c1ccco1)C(c1cccs1)N1CCN(c2ccccc2F)CC1` (configuration not stated), the Potency is inactive: > 76.9 µM.

With `O=C1OCCC1N1C(=O)c2ccccc2S1(=O)=O` (configuration not stated), the Potency was inactive: > 76.9 µM.

As for `COc1ccc(-c2nnc(SCC(=O)Nc3cccc(Cl)c3)o2)cc1`, the Potency is inactive: > 76.9 µM.
